The data set concerns the molecule itself. Nature of the data set: SEC-MALS; Superdex 75 10/300 GL; 25 mM HEPES pH 7.4, 500 mM NaCl; the same with 100 mM potassium phosphate; the same with 100 mM potassium phosphate and 50 mM fosfosal.

B1: CXC chemokine ligand 12 (human CXCL12α, recombinant) (ligand)
chain: not shown
notes: It was 15N-labelled for NMR; the SEC-MALS and the yeast assay used recombinant CXCL12; also called 15N-CXCL12
On to B1, for which the binding result is reported as “binds”.

These data come from article PMC7378375, “High-Throughput Screening of a Functional Human CXCL12-CXCR4 Signaling Axis in a Genetically Modified S. cerevisiae: Discovery of a Novel Up-Regulator of CXCR4 Activity” (Frontiers in Molecular Biosciences, 2020).
